Experimental data published in ChEMBL document CHEMBL1154674, “Synthesis and evaluation of three 18F-labeled aminophenylbenzothiazoles as amyloid imaging agents” (J Med Chem, 2009).
The source gives many values for each of these; only a part stands here. Blank lines part the entries; values can stand above or below the molecule they belong to.

How the values were obtained:
Assay type in all cases: ADME, organism-based, Macaca mulatta
[1] = Drug level in normal rhesus monkey parietal cortex assessed as standard uptake value at 81.2 MBq, iv after 8 mins by microPET; details: in vivo
[2] = Drug level in normal rhesus monkey pons assessed as standard uptake value at 81.2 MBq, iv after 85 mins by microPET; details: in vivo
[3] = Drug level in normal rhesus monkey frontal cortex assessed as standard uptake value at 81.2 MBq, iv after 165 mins by microPET; details: in vivo, 2.75 h
[4] = Drug level in normal rhesus monkey cerebellum assessed as standard uptake value at 81.2 MBq, iv after 105 mins by microPET; details: in vivo, 1.75 h
[5] = Drug level in normal rhesus monkey cerebellum assessed as standard uptake value at 81.2 MBq, iv after 2.5 mins by microPET; details: in vivo
[6] = Drug level in normal rhesus monkey pons assessed as standard uptake value at 81.2 MBq, iv after 65 mins by microPET; details: in vivo
[7] = Drug level in normal rhesus monkey pons assessed as standard uptake value at 81.2 MBq, iv after 0.5 mins by microPET; details: in vivo
[8] = Drug level in normal rhesus monkey cerebellum assessed as standard uptake value at 81.2 MBq, iv after 155 mins by microPET; details: in vivo
[9] = Drug level in normal rhesus monkey pons assessed as standard uptake value at 81.2 MBq, iv after 135 mins by microPET; details: in vivo, 2.25 h
[10] = Drug level in normal rhesus monkey thalamus assessed as standard uptake value at 81.2 MBq, iv after 135 mins by microPET; details: in vivo, 2.25 h
[11] = Drug level in normal rhesus monkey pons assessed as standard uptake value at 81.2 MBq, iv after 2.5 mins by microPET; details: in vivo
[12] = Drug level in normal rhesus monkey frontal cortex assessed as standard uptake value at 81.2 MBq, iv after 75 mins by microPET; details: in vivo, 1.25 h
[13] = Drug level in normal rhesus monkey white matter assessed as standard uptake value at 81.2 MBq, iv after 6 mins by microPET; details: in vivo, 0.1 h
[14] = Drug level in normal rhesus monkey parietal cortex assessed as standard uptake value at 81.2 MBq, iv after 135 mins by microPET; details: in vivo, 2.25 h
[15] = Drug level in normal rhesus monkey white matter assessed as standard uptake value at 81.2 MBq, iv after 135 mins by microPET; details: in vivo, 2.25 h
[16] = Drug level in normal rhesus monkey parietal cortex assessed as standard uptake value at 81.2 MBq, iv after 65 mins by microPET; details: in vivo
[17] = Drug level in normal rhesus monkey pons assessed as standard uptake value at 81.2 MBq, iv after 115 mins by microPET; details: in vivo
[18] = Drug level in normal rhesus monkey cerebellum assessed as standard uptake value at 81.2 MBq, iv after 95 mins by microPET; details: in vivo
[19] = Drug level in normal rhesus monkey frontal cortex assessed as standard uptake value at 81.2 MBq, iv after 47.5 mins by microPET; details: in vivo
[20] = Drug level in normal rhesus monkey thalamus assessed as standard uptake value at 96.3 MBq, iv after 57.5 mins by microPET; details: in vivo
[21] = Drug level in normal rhesus monkey cerebellum assessed as standard uptake value at 96.3 MBq, iv after 145 mins by microPET; details: in vivo
[22] = Drug level in normal rhesus monkey parietal cortex assessed as standard uptake value at 96.3 MBq, iv after 125 mins by microPET; details: in vivo
[23] = Drug level in normal rhesus monkey white matter assessed as standard uptake value at 96.3 MBq, iv after 42.5 mins by microPET; details: in vivo
[24] = Drug level in normal rhesus monkey pons assessed as standard uptake value at 96.3 MBq, iv after 115 mins by microPET; details: in vivo
[25] = Drug level in normal rhesus monkey white matter assessed as standard uptake value at 96.3 MBq, iv after 105 mins by microPET; details: in vivo, 1.75 h
[26] = Drug level in normal rhesus monkey pons assessed as standard uptake value at 96.3 MBq, iv after 3.5 mins by microPET; details: in vivo
[27] = Drug level in normal rhesus monkey white matter assessed as standard uptake value at 96.3 MBq, iv after 32.5 mins by microPET; details: in vivo
[28] = Drug level in normal rhesus monkey cerebellum assessed as standard uptake value at 96.3 MBq, iv after 65 mins by microPET; details: in vivo
[29] = Drug level in normal rhesus monkey cerebellum assessed as standard uptake value at 96.3 MBq, iv after 2.5 mins by microPET; details: in vivo
[30] = Drug level in normal rhesus monkey white matter assessed as standard uptake value at 96.3 MBq, iv after 85 mins by microPET; details: in vivo
[31] = Drug level in normal rhesus monkey parietal cortex assessed as standard uptake value at 109.4 MBq, iv after 87 mins by microPET; details: in vivo, 1.45 h
[32] = Drug level in normal rhesus monkey parietal cortex assessed as standard uptake value at 109.4 MBq, iv after 129 mins by microPET; details: in vivo, 2.15 h
[33] = Drug level in normal rhesus monkey frontal cortex assessed as standard uptake value at 109.4 MBq, iv after 27.5 mins by microPET; details: in vivo
[34] = Drug level in normal rhesus monkey parietal cortex assessed as standard uptake value at 109.4 MBq, iv after 81 mins by microPET; details: in vivo, 1.35 h
[35] = Drug level in normal rhesus monkey pons assessed as standard uptake value at 109.4 MBq, iv after 4.5 mins by microPET; details: in vivo, 0.075 h

- SUV [1]: 5.021
- SUV [2]: 5.635
- SUV [3]: 4.598
- SUV [4]: 1.863
- SUV [5]: 2.019
- SUV [6]: 5.562
- SUV [7]: 0.865
- SUV [8]: 1.469
- SUV [9]: 5.697
- SUV [10]: 5.266
- SUV [11]: 4.23
- SUV [12]: 5.076
- SUV [13]: 3.13
- SUV [14]: 2.47
- SUV [15]: 4.079
- SUV [16]: 3.277
- SUV [17]: 5.362
- SUV [18]: 1.712
- SUV [19]: 5.463
Compound: CNc1ccc2nc(-c3ccc([18F])cc3)sc2c1

- SUV [20]: 2.25
- SUV [21]: 0.93
- SUV [22]: 1.26
- SUV [23]: 1.42
- SUV [24]: 1.95
- SUV [25]: 1.56
- SUV [26]: 1.09
- SUV [27]: 1.34
- SUV [28]: 1.18
- SUV [29]: 1.56
- SUV [30]: 1.5
Compound: CN(C)c1ccc2nc(-c3ccc([18F])cc3)sc2c1

- SUV [31]: 3.86
- SUV [32]: 3.52
- SUV [33]: 5.2
- SUV [34]: 3.92
- SUV [35]: 3.76
Compound: Nc1ccc2nc(-c3ccc([18F])cc3)sc2c1
